We go through 43 molecules from ChEMBL document CHEMBL4888484, “Replenishing the malaria drug discovery pipeline: Screening and hit evaluation of the MMV Hit Generation Library 1 (HGL1) against asexual blood stage Plasmodium falciparum ,using a nano luciferase reporter read-out” (2022).

The structures appear in SMILES notation. In all, about 150,000 compounds went through this assay and about 540 (0.36%) showed an effect of 50% or more. Some of the results follow.

In general, % Inhibition refers to the relative decrease from the control value, in per cent.

The subject of the experiment is Plasmodium falciparum. The experiment is described as follows: Primary screen in NF54 nanoGlo assay, in single point, at 2uM, 72h; a lower Z score goes with more inhibition. As to conditions: timepoint 72 hour. The format is functional, Erythrocyte.
Take `CCC(CC)(CN=C1NCCCCN1)OC`: the “% Inhibition” value is given as -11% and the Z score was 1.46.

For the molecule `NC(=O)[C@H](Cc1ccccc1)n1ccnc1-c1cccc(Cl)c1`, the “% Inhibition” value is -7% and the Z score turned out to be 0.8.

Turning to `Cc1csc(C)c1S(=O)(=O)Nc1ncc2c(n1)CCOC2`, the “% Inhibition” value is on record as -7% and the Z score was 0.98.

With `Cc1ccc(/C=C(\C(=O)N2CCC(C)CC2)n2ccccc2=O)cc1`, the “% Inhibition” value is listed as 6% and the Z score was -0.77.

Regarding `CCN(CC(=O)Nc1ccc(NC(C)=O)cc1)C(=O)c1cc2c(s1)CCC2`, the “% Inhibition” value was -5% and the Z score amounted to 0.46.

For `Cc1nc(C(=O)Nc2cccc3[nH]ccc23)c(C(C)C)s1`, the “% Inhibition” value worked out at 9% and the Z score is -1.16.

As for `CC(C)(C)c1noc(-c2cccnc2-n2cnc(C(=O)Nc3ccccc3)c2)n1`, the “% Inhibition” value was 5% and the Z score is -0.67.

`CC1CCC2(CC1)NC(=O)N(Cc1csc(-c3ccco3)n1)C2=O` (stereo unspecified): the “% Inhibition” value came to 26% and the Z score was -3.41.

On to `Nc1nc2c(c(C(=O)NCCc3nccs3)n1)CCCC2`, for which the “% Inhibition” value was 8% and the Z score is listed as -1.06.

On to `COCCCNC(=O)[C@@H](C#N)C(=O)c1ccc2c(c1)CCC2`, for which the “% Inhibition” value is -8% and the Z score came to 0.97.

For the molecule `CC1(C)CN(C(=O)CC2CCNCC2)C[C@@H]1c1ccccc1`, the “% Inhibition” value was -4% and the Z score amounted to 0.61.

In the case of `CC[C@H]1OCC[C@@H]1NC(=O)Nc1cc(Br)cnc1C`, the “% Inhibition” value is listed as -6% and the Z score is reported as 1.04.

As for `NC(=O)N1CCC(C(=O)N(Cc2ccccc2)C2CCCCC2)CC1`, the “% Inhibition” value is reported as -7% and the Z score was 0.71.

With `CC1(C)OCC[C@@H]1NC(=O)C12CCC(CC1)C2`, the “% Inhibition” value was -12% and the Z score stood at 1.89.

On to `CCc1nnc(NCc2csc(N(C)C)n2)o1`, for which the “% Inhibition” value is reported as -18% and the Z score is 1.62.

For the molecule `Cc1csc2c(N3CCC[C@@H]3CN3CCCC3)ncnc12`, the “% Inhibition” value is reported as 3% and the Z score is -0.57.

Consider `COc1cc(OC)c(NC(=O)C2CCN(c3cc(=O)n(C)c(=O)n3C)CC2)cc1Cl`, for which the “% Inhibition” value is listed as -6% and the Z score is reported as 1.01.

As to `C[C@@](CO)(NCCOCC(F)(F)F)C1CCCCC1`, the “% Inhibition” value is -2% and the Z score is listed as 0.32.

With `Fc1ccc(C(NCCC2CCCO2)c2ccccc2)nc1` (stereo unspecified), the “% Inhibition” value is recorded as -7% and the Z score is 0.94.

`C#CCN(CC1C(C)=CCCC1C)C1CCS(=O)(=O)C1` (stereo unspecified): the “% Inhibition” value was determined as 3% and the Z score was -0.34.

For `NC(=O)Cn1ccnc1[C@H]1CCCN(C(=O)C2CCCCCC2)C1`, the “% Inhibition” value is on record as -3% and the Z score is 0.6.

For the molecule `CC1(C)C[C@H](NC(=O)c2ccco2)[C@@]2(CCC(=O)NCCN3CCOCC3)CC[C@](C)(O)C[C@@H]12`, the “% Inhibition” value is on record as -7% and the Z score stood at 1.09.

As to `COc1cccc(NC(=O)N2CCCC3CCCC32)c1` (stereo unspecified), the “% Inhibition” value is -2% and the Z score is reported as 0.21.

As to `COc1ccc(S(=O)(=O)N2CCC(c3c(C)n(Cc4c(F)cccc4Cl)c4ccccc34)CC2)cc1`, the “% Inhibition” value is given as -11% and the Z score is 1.52.

Turning to `CCNC(=O)N1CCc2nc(N3CCN(c4ccccc4)CC3)nc(N(C)C(C)C)c2C1`, the “% Inhibition” value turned out to be 8% and the Z score is listed as -1.45.

On to `O=C(c1ccsc1)N1C[C@H]2CCCC[C@@]2(C(=O)O)C1`, for which the “% Inhibition” value is reported as -9% and the Z score is reported as 0.89.

Consider `CN1CCc2c(CNC(=O)[C@@H]3CCCO3)c3c(c(O)c2C1=O)OCO3`, for which the “% Inhibition” value is recorded as -18% and the Z score is recorded as 2.37.

With `O=C(c1ccccc1O)N1CCC2(CCC(O)CC2)CC1`, the “% Inhibition” value is -2% and the Z score was 0.26.

For `CCN(CC)C(=O)c1cnc2snc(C)c2c1N1CCC(C(=O)Nc2cc(F)ccc2F)CC1`, the “% Inhibition” value was found to be 6% and the Z score is on record as -0.96.

For the molecule `Cc1cc(C(=O)N2CCC[C@@H](Nc3ncnc4sccc34)C2)on1`, the “% Inhibition” value is given as -6% and the Z score was determined as 1.28.

`C=CCN(C(=O)Cc1nnn(C(C)(C)C)n1)C(C)(C)C`: the “% Inhibition” value is -3% and the Z score worked out at 0.36.

In the case of `CC(C)c1noc([C@@H]2CCCN2C(=O)c2cn3c4c(cccc4c2=O)CC3)n1`, the “% Inhibition” value is listed as -5% and the Z score is listed as 0.64.

For the molecule `Cn1c(NC2CCCCC2)cc(=O)n(C)c1=O`, the “% Inhibition” value is recorded as -11% and the Z score is on record as 2.1.

Regarding `Cc1ccc2c(c1)C(=O)N(CCC1=CCCCC1)C2=O`, the “% Inhibition” value is -10% and the Z score is 1.22.

As for `O=C(Nc1cccnc1-n1cccn1)c1cnc2ccccc2n1`, the “% Inhibition” value came to 7% and the Z score is recorded as -0.93.

Regarding `COCCc1cc(NC(=O)Nc2sc(-c3ccccc3)nc2C)n(C)n1`, the “% Inhibition” value is listed as 38% and the Z score is reported as -4.35.

Regarding `O=C1C[C@H](NC(=O)c2ccccn2)CN1`, the “% Inhibition” value was -6% and the Z score came to 1.1.

On to `Cc1nn(C)c(C)c1C(=O)Nc1ccc(OC2CCC2)c(F)c1`, for which the “% Inhibition” value was -7% and the Z score is 0.57.

For the molecule `CC(C)c1noc(-c2ccnc(N3CCC[C@](CO)(c4ccccc4)C3)c2)n1`, the “% Inhibition” value is -7% and the Z score came to 0.71.

For `CCC[C@H](C)c1cn(CCc2nc3ccccc3c(=O)[nH]2)nn1`, the “% Inhibition” value is reported as -11% and the Z score is on record as 2.2.

Turning to `O=C(O)C[C@@H]1CCN(CC2CCCCC2)C[C@@H]1Cc1nc2ccccc2[nH]1`, the “% Inhibition” value was -8% and the Z score stood at 1.16.

Take `CCc1ccc2nc(C)cc(C(=O)N3CCC(CCC(=O)NC4CC4)CC3)c2c1`: the “% Inhibition” value is given as -2% and the Z score is recorded as 0.26.

For the molecule `CCCn1c(=O)cc(C(C)C)c2ccc(OCC(=O)NCc3ccc4c(c3)OCO4)cc21`, the “% Inhibition” value was -7% and the Z score worked out at 0.92.
